± gives the standard deviation of the averaged measurements. The list shows a part of the results.
system: PfAP2-LT AP2 domain (GST-tagged); assay: gcPBM binding intensity (ln(normalized median fluorescence intensity)); higher = stronger DNA binding
Summary of the method: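 The highest Masliner-normalised natural-log median intensity across replicate spots of either probe orientation is reported as binding intensity. GST-tagged P. falciparum DNA-binding domains expressed in E. coli were applied for 1 h to an Agilent 4 × 180k array of primer-extended double-stranded 36-bp intergenic genomic probes plus negative controls, and bound protein was detected with Alexa488 anti-GST antibody and scanned at 488 nm.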

Row | Sequence | gcPBM binding intensity (ln)
1 | TTCAATTTTTTAAAGCGTACATATAAAAGTTATATG [XGTACX_site731] | 8.49 ± 0.35
2 | AATCATTTGTTATAAGTCTAAAATTATTAGAATATT [XGTACX_negctrl_site151] | 8.47 ± 0.52
3 | ATTATTACATATAATGCATGTGCATATATTTTTATA [TGCATGCA_site701] | 8.8 ± 0.42
4 | AAATTTGGATGACTCAATAAATTATAATATATATAT [CACACA_negctrl_site298] | 8.55 ± 0.49
5 | ATATTCTTTATATGCATACACACCTAATATAGGGAC [CACACA_site1533] | 8.91 ± 0.38
6 | TATAATAAATCGAACTGTACATATATATATATATAT [XGTACX_site7097] | 9.63 ± 0.51
7 | TATACGCAGAAACACACACACAAAAAAAAAAAAAAA [CACACA_site427] | 9.55 ± 0.53
8 | ATTCGGATCTATAAGTGTACACAATCTAGCGAAAAG [XGTACX_site3088] | 8.77 ± 0.52
9 | CATATATAAATATATACACACATATATATATATATA [CACACA_site1365] | 9.75 ± 0.24
10 | TTTATTCAAATATAATGTACTTTCTACAAATTCAAT [XGTACX_site8119] | 8.28 ± 0.44
11 | ATTTTTTTTGCTAAGTGTACACAAATGTTTATTAAT [XGTACX_site7440] | 8.88 ± 0.51
12 | TTATATAACACGGGGAGGACACAAGAAATAAAGAGC [XGTACX_site2148] | 8.88 ± 0.52
13 | GCTAATAATAAAAGCATAATGAACAAACACCCAGTA [CACACA_negctrl_site806] | 9.24 ± 0.33
14 | TTTTTCTGTTTTTATAGCCTTCTCATAATACATAAA [TGCATGCA_negctrl_site355] | 8.46 ± 0.57
15 | ATATTTTCCCTTTATAGGAGCACAAAAATTAAATGT [CACACA_negctrl_site1114] | 8.46 ± 0.35
16 | CAGATAAGATTTTGTGGTACTATTTATTAAATTAGA [XGTACX_site2644] | 8.41 ± 0.38
17 | AACAATTATTGTAATGCATGCACTGAATATAGAAAG [TGCATGCA_site889] | 9.25 ± 0.42
18 | ATTCACAAATATATGGTGCATAATATATATATATAT [GTGCAC_site9674] | 9.07 ± 0.15
19 | AGCGTATAACATATGACACACACACCGACATACACA [CACACA_site8532] | 9.86 ± 0.3
20 | TACGTATCATAATTTTATTTTATATATATTCACAAA [XGTACX_negctrl_site144] | 8.47 ± 0.45
21 | ATATATATATGGAAGTGTACTTATATAGCATACTAG [XGTACX_site5130] | 8.94 ± 0.35
22 | AAATTTTTATAATTATCACACATTGAATTGTGGTCT [CACACA_site4343] | 8.91 ± 0.43

Row | Sequence | gcPBM binding intensity (ln)
23 | AATATGTAAATATGGGTGCTTTAAAATATATTCATT [GTGCAC_site9583] | 8.65 ± 0.45
24 | TTCCAATGATAAAATTGTACTTGAAGAAAATTTTTT [XGTACX_site4607] | 8.23 ± 0.5
25 | TATATATATATATGTACACACACACCGATAAATAAA [CACACA_site8041] | 9.69 ± 0.15
26 | TTTTTGTCTGCATACGCACACACGTGGACCATCTTA [CACACA_site8303] | 9.48 ± 0.45
27 | AAAGAAAGAAAACACACACACATATATATATATCAA [CACACA_site3743] | 9.71 ± 0.28
28 | ATTTCCCATACACGTTGTACAATGTAGAGAAAGTAT [XGTACX_site4586] | 8.81 ± 0.48
29 | GATATGTGTATAATATGTACATATATATATATATAT [XGTACX_site6531] | 9.58 ± 0.34
30 | CTATTTAAAATATGAACACACATTATTTGTTTTAGA [CACACA_site2713] | 8.56 ± 0.42
31 | ATATCATTATATAGTTGTACATATTTATTTATTTAT [XGTACX_site8995] | 8.97 ± 0.45
32 | AATATAGGAATATGCACACATATATACCTACATACA [CACACA_site4939] | 9.14 ± 0.39
33 | AAAAAAAAAAATACTAGTACGTAAAATTATATAAAT [XGTACX_site3019] | 8.9 ± 0.49
34 | TAATACTTATATAAAGGTACACAATTTAACCGAATG [XGTACX_site7173] | 8.76 ± 0.4
35 | GTAAATATTCATATATGTACTTATGATATTTGCTAA [XGTACX_site6828] | 8.68 ± 0.37
36 | AAGAAAGAGTTCTGTTGTACAAAATATTAATATGTA [XGTACX_site7213] | 8.81 ± 0.52
37 | CTTCCTTAGGAATGTACACACATATAAAATATGTTG [CACACA_site6355] | 8.86 ± 0.38
38 | ACATATATATATATATATTGATTTATTTATTTCCCT [CACACA_negctrl_site659] | 8.83 ± 0.42
39 | ATATATATATATAAATGTACAAAAATATATATGTAA [XGTACX_site4531] | 8.99 ± 0.38
40 | TTTCATTTTTTTACATGTACGCAAAAGTGTGTAGTT [XGTACX_site6582] | 9.13 ± 0.28
41 | TTTTGGTTAATTCCCCCCATTACATTATGTCATGTC [CACACA_negctrl_site229] | 9.36 ± 0.17
42 | AACAAAATAAAAAGTAATCTTATTTATTAAAATTTT [CACACA_negctrl_site419] | 8.3 ± 0.62
43 | TATAAACAAAACAAAACATGCATAATACTATAAATT [TGCATGCA_site333] | 9.04 ± 0.36
44 | TAATTAACTTTATATGCATGTTAAAAATGTTATAAG [TGCATGCA_site761] | 8.32 ± 0.31

Row | Sequence | gcPBM binding intensity (ln)
45 | CTTTATTATAAGATTACACACATGTGTTCTAATTTA [CACACA_site7479] | 9.22 ± 0.38
46 | ATTACCATATAAAACACACAAACATACATACATACA [CACACA_site3729] | 9.38 ± 0.3
47 | TATATATATATATATTGTACATATTAATATTAGAAA [XGTACX_site8923] | 8.765 ± 0.064
48 | TGGAGGTCAGTTCACAGTACCCAGAAACTCTACGAG [XGTACX_site2007] | 8.57 ± 0.45
49 | TATAAATTAAAATCAGTGCATATTTTGAAAAACCTC | 8.62 ± 0.47
50 | TGAAATAACCCATGTGCATGCACTTCAATAACTGAA [TGCATGCA_site1041] | 8.97 ± 0.47
51 | ATATTATTATTAGTTTCACACATTTAATGAAACTAA [CACACA_site5677] | 8.56 ± 0.38
52 | TATAAATTATAAATTGCACACATATTTTTATATTTA [CACACA_site8974] | 8.78 ± 0.39
53 | TTACATGTAAAAGGTACACACATTAGATATACAAAT [CACACA_site6651] | 9.27 ± 0.42
54 | AATACTCAAAAGAATCGTACAAACAACACTCCCACG [XGTACX_site7564] | 9.15 ± 0.3
55 | TATCATACCTTTTAATGTACACACATTTCTTTTTTG [XGTACX_site1655] | 9.13 ± 0.56
56 | TATAACTTTTTTAATACACACAAATATTTATTTATA [CACACA_site7425] | 8.57 ± 0.54
57 | GGCATACACGAACACACACACACACGCACATATATA [CACACA_site6426] | 10.5 ± 0.36
58 | TTTTACGTGAGTAATACACACATATAAGTTTATATA [CACACA_site4120] | 8.65 ± 0.37
59 | ATATATATATGTGTGTGTACATATGATTTCGCACTT [XGTACX_site4449] | 9.71 ± 0.2
60 | TATACAGATAAATACACACACATATATATATATATA [CACACA_site4178] | 10.2 ± 0.33
61 | GTTATAATTTAGTCAAGTACATGCGTATGTATATTC [XGTACX_site3763] | 8.96 ± 0.3
62 | CACAGAAATATTCTTATACACACTGTTCTTATATTC [CACACA_site288] | 8.93 ± 0.45
63 | TAATATATATTATATACACACATATATATATATATA [CACACA_site428] | 9.465 ± 0.092
64 | TACCACTTTCGAAGTAGTACATGGCTTTTTTTTTTT [XGTACX_site8379] | 8.74 ± 0.42
65 | TGTATGTTAAATACAACACACAAAAAAAAACAAGTT [CACACA_site4324] | 9.13 ± 0.5
66 | ACATATGAATATAATACACACTTGTATTCTTAATAT [CACACA_site5085] | 8.93 ± 0.35

Row | Sequence | gcPBM binding intensity (ln)
67 | ATAATTCCATAAAATAGACACACGAATGTATAATAT [CACACA_site477] | 9.19 ± 0.42
68 | CAGTTGTTAATTTGTGTGCACCAAATATTATACATA | 8.97 ± 0.37
69 | TATTTGTAAAGACATGCATGGTACTTTTAAAACATA [TGCATGCA_site7] | 8.67 ± 0.44
70 | TGTAGATAAAATAAACGTACGTATTGATTTTTTTCA [XGTACX_site1610] | 8.68 ± 0.35
71 | TGGTAATACCCATACACACACACATACACATATATA [CACACA_site8877] | 9.76 ± 0.32
72 | TTAATATTTGTTCTGATCCTTTTATTCAACTTTTTT [CACACA_negctrl_site536] | 8.64 ± 0.52
73 | TTTTCTTTCTTGTTTCGTATATTATAAAAAAAAAAG [CACACA_negctrl_site854] | 8.04 ± 0.33
74 | GTATTTTGCATAAATGCATGTAAATATATACCTACC [TGCATGCA_site957] | 8.8 ± 0.33
75 | TATTTGGGTATTTTTACACACATTAAAATATATATA [CACACA_site5800] | 8.69 ± 0.39
76 | GTAATAAAAAATTAATGTACTTTATATAATATATTA [XGTACX_site5935] | 8.38 ± 0.54
77 | TTTTTGTATTCTCCGGACTACATTATGTTGTAAATG [CACACA_negctrl_site691] | 9.14 ± 0.46
78 | TCTAATTTAAAATACACACACATATCTATAATATAT [CACACA_site7029] | 9.19 ± 0.33
79 | GTATAAAAATTTAGGAGTACAATATATTTATAATAT [XGTACX_site2127] | 8.66 ± 0.44
80 | TATTGTATAAAAATAACATGCAATCCTTATACTGCT [TGCATGCA_site345] | 8.59 ± 0.49
81 | TGTACAGTAAATACAACACACATTTGTATAAATATA [CACACA_site4705] | 9.32 ± 0.41
82 | TAATATATAAAAAGATGTACTTTTGCAAGTTCCTTT [XGTACX_site8519] | 8.54 ± 0.47
83 | GGACTTTATAAAAATGGTACACGCAATTCTATAATC [XGTACX_site6515] | 8.75 ± 0.51
84 | ATATATATATATGTATGTACGTATGTATGTATGAAT [XGTACX_site4857] | 9.34 ± 0.23
85 | GGTACATACAAACACACACACAAAAAAAAAAAAATA [CACACA_site1577] | 9.65 ± 0.4
86 | CCATATGATATATATTGTACATTATATATTATTTCT [XGTACX_site1697] | 8.75 ± 0.45
87 | TATGTTGTTTATTTAGTGCATATTTAAATATTATAA [GTGCAC_site9601] | 8.68 ± 0.34
88 | AATGACATTCTTACACGTACAAAATAAAAAATAAAA [XGTACX_site6932] | 8.75 ± 0.47

— the supplement of paper PMC11417369
